From PubChem BioAssay AID743255 (National Center for Advancing Translational Sciences (NCATS), 2014)
Screen size: about 390,000 compounds; about 910 (0.23%) were called active. Roughly 5% stayed inconclusive and do not appear here. Calls follow the shape of the dose curve; as a rule, active = well fitted inhibition curve with a large enough effect; inconclusive = small, poorly fitted or top-dose-only effect; inactive = no such curve, though single readings can be large or run the other way. The entries are a selection whose mix differs from that of the whole data set.

Target: Ubiquitin carboxyl-terminal hydrolase 1 (Homo sapiens) (UniProt O94782)
Chain of UniProt O94782 (O94782 whole entry, looked up): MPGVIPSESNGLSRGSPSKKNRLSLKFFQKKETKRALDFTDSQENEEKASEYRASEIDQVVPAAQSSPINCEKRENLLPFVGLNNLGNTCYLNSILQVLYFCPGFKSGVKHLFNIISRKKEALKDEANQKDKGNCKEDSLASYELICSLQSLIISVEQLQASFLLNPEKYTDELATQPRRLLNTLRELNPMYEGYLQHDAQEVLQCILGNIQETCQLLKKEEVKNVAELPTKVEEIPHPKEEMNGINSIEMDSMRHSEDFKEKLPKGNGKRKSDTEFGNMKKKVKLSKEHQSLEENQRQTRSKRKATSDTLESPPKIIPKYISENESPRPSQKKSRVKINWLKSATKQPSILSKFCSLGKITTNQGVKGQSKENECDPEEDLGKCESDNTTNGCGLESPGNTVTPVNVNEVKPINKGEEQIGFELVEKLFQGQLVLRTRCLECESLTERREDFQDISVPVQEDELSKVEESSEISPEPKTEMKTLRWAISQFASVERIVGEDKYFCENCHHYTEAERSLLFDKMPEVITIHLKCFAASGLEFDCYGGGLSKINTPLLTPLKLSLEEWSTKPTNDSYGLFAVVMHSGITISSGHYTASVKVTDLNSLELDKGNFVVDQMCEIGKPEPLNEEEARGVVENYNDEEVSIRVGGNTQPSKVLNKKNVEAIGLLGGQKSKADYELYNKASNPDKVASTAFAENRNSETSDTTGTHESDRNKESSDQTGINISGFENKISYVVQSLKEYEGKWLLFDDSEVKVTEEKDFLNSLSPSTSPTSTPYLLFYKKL
Assay: Inhibitors of USP1/UAF1: Primary Screen; also: nearly all actives have a fitted effect of over 60% in size
Conditions: recombinant USP1/UAF1, Ub-Rhodamine cleavage fluorescence; activity change, negative = inhibition: at 57.1 µM (top of the series)
Method in brief: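 Step one: compound is pinned into 1nM USP1/UAF1 in HEPES pH 7.8 buffer with TCEP. Step two: 15 min room-temperature incubation. Step three: Ub-Rho (150nM final) starts cleavage, tracked by fluorescence over six one-minute reads.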
% is scaled to controls: 0 for no effect and ±100 for the full control effect; potency is read from the fitted curve at half-maximal effect.

| Structure (SMILES) | activity change, negative = inhibition | Potency |
| --- | --- | --- |
| CCOC(=O)c1sc2nc3c(SCCC(=O)O)cc(C(=O)c4cc(OC)ccc4O)cn3c(=O)c2c1C | inactive: 12% | – |
| C[C@H](CO)N1C[C@H](C)[C@H](CN(C)S(=O)(=O)c2ccc(Cl)cc2)OCc2cnnn2CCCC1=O | inactive: 0.554% | – |
| CCSC1=NSC2=NC(=O)/C(=C\c3coc4ccccc4c3=O)C(=N)N12 | – | active: 22.4 µM |
| COc1ccc(OC)c2c1C(=O)c1ccccc1C2=O | – | active: 31.6 µM |
| COC1=C(N)C(=O)c2nc(-c3nc(C(=O)O)c(C)c(-c4ccc(OC)c(OC)c4O)c3N)ccc2C1=O | – | active: 11.2 µM |
| C[C@@H]1NC(=O)[C@@]2(C)[C@@H](c3ccccc3)[C@H]3COc4ccccc4[C@@H]3N2C1=O | inactive: -27.9% | – |
| Cc1nnc(NC(=O)NC(C)N2C(=O)C3C4C=CC(C4)C3C2=O)s1 (configuration not stated) | inactive: 8.06% | – |
| CCCCCCSc1ccc([C@@H]2[C@@H]3C(=O)N(C)C(=O)[C@@H]3[C@]3(C(=O)OC)CCCCN23)cc1 | inactive: -28.3% | – |
| COc1ccc(-n2c(=O)[nH]c3cc(C(=O)NCCc4ccc(Cl)cc4)ccc3c2=O)cc1OC | inactive: 1.44% | – |
| Nc1c(C(=O)Nc2nccs2)sc2nc(-c3cccs3)cc(C(F)(F)F)c12 | inactive: 28.5% | – |
| CCN1CCN(c2cc(C)c3cc(NC(=O)c4cc(OC)cc(OC)c4)ccc3n2)CC1 | inactive: 1.11% | – |
| CCOC(=O)c1ccc(Nc2cc3ccccc3c(=O)[nH]2)cc1 | – | active: 17.8 µM |
| CC1CCC(C(C)C)C(OC(=O)C[n+]2cc(-c3ccc(Cl)cc3)n3c2CCCCC3)C1 (configuration not stated) | inactive: -26% | – |
| Cn1nc(C(=O)N2CCN(c3cccc(Cl)c3)CC2)c2c1-c1ccccc1S(=O)(=O)C2 | inactive: -22.2% | – |
| CCOC(=O)/C=c1\s/c(=C\c2ccc3cc(OC)ccc3c2)c(=O)n1CC(=O)NCc1ccc2c(c1)OCO2 | inactive: 2.53% | – |
| Cn1c(=O)c(N)c2c3c(c(Br)ccc31)C(=O)c1ccccc1-2 | inactive: 244% | – |
| C[C@H](CO)N1C[C@H](C)[C@@H](CN(C)Cc2cccc3c2OCCCO3)OCc2cnnn2CCCC1=O | inactive: -1.78% | – |
| Cc1ccc(C)c(N2CCN(C(=O)CCCn3ncn4c(cc5occc54)c3=O)CC2)c1 | inactive: -14.1% | – |
| Fc1cccc(F)c1-c1nc(-c2ccncc2)no1 | inactive: -6.31% | – |
| C[C@@H]1CN([C@H](C)CO)C(=O)CCCn2nncc2CO[C@H]1CN(C)S(=O)(=O)c1ccc(Cl)cc1 | inactive: -14.5% | – |
| COc1ccc(CN(C(=O)c2cc(=O)c3ccccc3o2)C2CCS(=O)(=O)C2)cc1OC (configuration not stated) | inactive: -16.6% | – |
| COc1cc(NC(=O)c2cnc(N)o2)cc(C(=O)Nc2cccc(C(F)(F)F)c2)c1 | inactive: -28.4% | – |

| Structure (SMILES) | activity change, negative = inhibition | Potency |
| --- | --- | --- |
| Cc1ncc(CO)c2c1Oc1nc(-c3ccccc3)nc(SCC(=O)N3CCCCC3)c1C2 | inactive: -13.7% | – |
| COc1ccc(C)cc1NC(=O)CN1C(=O)COc2ccc(S(=O)(=O)N3CCOCC3)cc21 | inactive: -25.9% | – |
| CC(C)(C)OC(=O)C[C@H]1C/C=C\C[C@@H](CC(=O)N[C@H](CO)Cc2ccccc2)C(=O)N2CCC[C@H]2COC1=O | inactive: -12.2% | – |
| C[C@H](NC(=O)c1nc[nH]c1C(=O)N[C@@H](Cc1ccccc1)C(=O)OCc1ccccc1)c1ccccc1 | inactive: -16.8% | – |
| O=C(NCc1ccco1)/C(=C/C=C/c1ccccc1)NC(=O)c1ccco1 | inactive: -16.8% | – |
| Cc1nn(C(C)C(=O)NCc2ccco2)c(=O)c2nn(-c3ccccc3)c(C)c12 (configuration not stated) | inactive: -8.27% | – |
| O=C(NCc1ccccc1Cl)c1ccc2c(c1)NC(=O)C(CS(=O)(=O)Cc1ccc(Cl)cc1)N2 (configuration not stated) | inactive: 61.2% | – |
| COC(C[C@H]1O[C@H]1[C@H](O)COCc1ccccc1)OC | inactive: -27.2% | – |
| CCOC(=O)N(C)C[C@@H]1OCc2cnnn2CCCC(=O)N([C@H](C)CO)C[C@@H]1C | inactive: -16.9% | – |
| COc1cc(/C=C2\Oc3cc(O)ccc3C2=O)ccc1O | – | active: 28.2 µM |
| C[C@H]1CN([C@@H](C)CO)S(=O)(=O)c2ccc(Br)cc2O[C@@H]1CN(C)Cc1ccccc1 | inactive: -33.7% | – |
| COc1ccc(S(=O)(=O)N(C)C[C@H]2OCc3cnnn3CCCC(=O)N([C@H](C)CO)C[C@@H]2C)cc1 | inactive: -3.93% | – |
| COc1ccccc1N1CCN(C(=O)c2cc3c(s2)-c2ccccc2OC3)CC1 | inactive: 0.56% | – |
| C[C@H](CO)N1C[C@H](C)[C@@H](CN(C)S(=O)(=O)c2ccc(F)cc2)Oc2ccc(NC(=O)Nc3ccc4c(c3)OCO4)cc2C1=O | inactive: -9% | – |
| C=CC[C@H](CC(=O)N(CCO)Cc1ccccc1)C(=O)N[C@H](COC(=O)[C@@H](CC=C)CC(=O)OC(C)(C)C)Cc1ccccc1 | inactive: -17.1% | – |
| Nc1ccn([C@@H]2O[C@H](CO)[C@@H](O)[C@@H]2O)c(=O)n1 | inactive: -21.9% | – |
| CCSC(=O)N=Nc1ccc(O)cc1 | – | active: 31.6 µM |
| COc1ccc(C(CNC(=O)COc2ccc(C)c(C)c2)N2CCCCC2)cc1 (configuration not stated) | inactive: -11.3% | – |
| Cc1ccc(NC(=O)CN2C(=O)CCSc3ccc(S(=O)(=O)N4CCCC4)cc32)cc1 | inactive: -15.9% | – |
| C[C@@H]1CN([C@H](C)CO)C(=O)CCCn2nncc2CO[C@H]1CN(C)S(=O)(=O)c1ccc(-n2cccn2)cc1 | inactive: -20% | – |
| O=C1NC(=O)C(c2ccccc2)(c2ccccc2)N1 | inactive: -15.6% | – |
| O=C(O)C(=O)/C(=C\c1ccc(Cl)cc1)c1ccc2ccccc2n1 | inactive: 28.1% | – |

| Structure (SMILES) | activity change, negative = inhibition | Potency |
| --- | --- | --- |
| COc1ccc(CN2CCN(S(=O)(=O)c3ccccc3)CC2)c(OC)c1 | inactive: -15.1% | – |
| N#Cc1sc2nc(-c3ccccc3)cc(-c3ccco3)c2c1N | – | active: 3.98 µM |
| COc1cccc(NC(=O)C2CCCN2S(=O)(=O)c2ccc3c(c2)n(C)c(=O)c(=O)n3C)c1 (configuration not stated) | inactive: -6.23% | – |
| CCOC(=O)c1c(NC(=O)c2ccco2)n(C2CCCCC2)c2nc3ccccc3nc12 | – | active: 15.8 µM |
| C[C@H](NC(=O)c1ncn2c1C(=O)NC[C@@H]2C)C(=O)OC(C)(C)C | inactive: -13.2% | – |
| OCC[C@@H]1C[C@@H](O)[C@H](O)[C@@]2(OCc3ccccc32)O1 | inactive: 7.75% | – |
| COC(C[C@@H](O)C[C@@H](O)COCc1ccccc1)OC | inactive: -21.2% | – |
| COc1ccc2c(c1)S/C(=C\C(=O)c1ccncc1)N2C | inactive: 102% | – |
| Cc1ccc(NC(=O)COc2ccc(/C(N)=N/O)cc2)cc1C | inactive: -7.95% | – |
| Cc1ccc(NC(=O)CSc2nnc(NC(=O)NC3CCCCC3)s2)cc1 | inactive: -26.5% | – |
| C[C@H]1CCC[C@]2(O[C@H](CCO)C[C@@H](O)[C@@H]2O)O1 | inactive: -19% | – |
| C[C@@H]1CN([C@H](C)CO)C(=O)CCCn2nncc2CO[C@@H]1CN(C)C(=O)c1cc(-c2ccccc2)on1 | inactive: 5.59% | – |
| CCCSc1ccc([C@@H]2[C@@H]3C(=O)N(CC)C(=O)[C@@H]3[C@]3(C(=O)OC)CCCCN23)cc1 | inactive: 8.89% | – |
| CCN(CC)C(=O)Cn1c(=O)n(CCCCCC(=O)Nc2ccccc2)c(=O)c2sccc21 | inactive: -14.2% | – |
| O=C(C1CCCCC1)N1C[C@@H](n2cc(-c3ccc(F)cc3)nn2)[C@H](O)C[C@@H]1c1ccc(Cl)cc1 | inactive: -24.8% | – |
| CCn1c(C)c(C)c2cc(C(=O)NCCCN3CCCCC3)ccc21 | inactive: -2.29% | – |
| O=c1oc2cc(O)ccc2cc1-c1nc2c(s1)CCc1ccccc1-2 | inactive: 242% | – |
| CCc1nc2ccc(C(=O)N3CCN(c4cccc(C)c4C)CC3)cc2nc1CC | inactive: -19.9% | – |
| Cc1nc2nc(SCC(=O)O)nn2c(C)c1Cc1c(F)cccc1Cl | inactive: -8.41% | – |
| CC(C)(C)OC(=O)C[C@H]1C/C=C\C[C@@H](CC(=O)N(CCO)Cc2ccccc2)C(=O)N[C@@H](Cc2ccccc2)COC1=O | inactive: -22.8% | – |
| C[C@H]1CN([C@@H](C)CO)C(=O)CCCn2nncc2CO[C@@H]1CN(C)Cc1ccc2c(c1)OCCO2 | inactive: -18.6% | – |
| C[C@H]1CN([C@@H](C)CO)C(=O)CCCn2nncc2CO[C@@H]1CN(C)Cc1cccc(C(F)(F)F)c1 | inactive: 7.31% | – |

| Structure (SMILES) | activity change, negative = inhibition | Potency |
| --- | --- | --- |
| COc1ccc(OCC(=O)NCC(c2ccc(OC)cc2)N2CCCCC2)cc1 (configuration not stated) | inactive: -17.6% | – |
| Cc1ccc(Cn2c(=N)c(S(=O)(=O)c3ccc(C)cc3)cc3c(=O)n4ccccc4nc32)cc1 | inactive: 51.7% | – |
| COC(C[C@H]1O[C@H]1C(=O)[C@@H](C)OCc1ccccc1)OC | inactive: -22.4% | – |
| CCOc1ccc(-c2nonc2NC(=O)c2ccco2)cc1 | inactive: -26.3% | – |
| COc1ccccc1NC(=O)CCCc1nnc2n(C)c(=O)c3sccc3n12 | inactive: 11.3% | – |
| CCOc1ccc(CCNC(=O)c2ccc3c(c2)c(C)c(C)n3Cc2ccccc2)cc1OCC | inactive: 119% | – |
| COc1cc(/C=C(\C#N)C(=O)c2c[nH]c3ccccc23)cc(OC)c1O | – | active: 28.2 µM |
| Cc1ccc(F)c(NC(=O)/C(C#N)=C(\O)c2ccc(C(C)(C)C)cc2)c1 | – | active: 22.4 µM |
| CN1CCS/C1=C/C=C1\SC(=S)N(CC(=O)O)C1=O | – | active: 25.1 µM |
| Cc1ccc(-c2nn(-c3ccccc3)cc2/C=C2\SC(=S)N(CCCCCC(=O)O)C2=O)o1 | – | active: 7.08 µM |
| Cc1ccccc1-c1ccc(/C=C2/SC(N3CCOCC3)=NC2=O)o1 | inactive: 36.2% | – |
| Cc1ccc(C(=O)N/C(=C\c2ccc(-c3ccccc3[N+](=O)[O-])o2)C(=O)NCCCN(C)C)cc1 | – | active: 28.2 µM |
| COc1ccccc1NC(=O)c1sc2nc(C)c(C(=O)Nc3ccc(C)cc3C)c(-c3ccco3)c2c1N | inactive: 16.6% | – |
| O=C1N[C@H](Cc2ccccc2)COC(=O)[C@H](Cc2ccc(F)cc2)CC/C=C/C[C@H]1CC(=O)N(CCO)Cc1ccccc1 | inactive: -5.79% | – |
| CC(C)c1ccc(OCC(O)CN2CCN(c3ccccc3)CC2)cc1 (configuration not stated) | inactive: -15.1% | – |
| COc1cc(OC)cc(-c2cc3nc(C)c(CCC(=O)NCc4ccccc4)c(C)n3n2)c1 | inactive: -19.5% | – |
| C[C@H](CO)N1C[C@H](C)[C@@H](CN(C)S(=O)(=O)c2ccc(Oc3ccccc3)nc2)OCc2cnnn2CCCC1=O | inactive: -10.2% | – |
| C#Cc1ccc([C@H]2C=C(C(=O)OCC=C)O[C@@H](OCCCCO)C2)cc1 | inactive: -16.8% | – |
| CCN1C(=O)/C(=C/C=C2/SCCN2C)SC1=S | – | active: 25.1 µM |
| O=c1oc2c(O)cccc2cc1-c1nc2ccccc2[nH]1 | inactive: 33.1% | – |
| O=C(O)CCCCn1c(SCC(=O)Nc2ccccc2C(F)(F)F)nc2ccsc2c1=O | inactive: -3.26% | – |
